The record followed here is publication PMC12655037, “Mitochondrial-Targeted Triphenylphosphonium-Conjugated Ionophores with Enhanced Cytotoxicity in Cancer Cells” (Molecules, 2025).

In experiment [1] the test system is PC3 human metastatic prostate cancer cells. Description: MTT assay, PC3 cells. The format is cell-based. The settings on record: for IC50: Homo sapiens, PC-3, MTT, 72 h, mean ± SD.
For experiment [2], the system named is HaCaT human immortal keratinocytes. Description: cells. The experiment is classed as cell-based. The settings on record: 72 h, read-out: IC50 HaCaT (normal cells).
The test system of experiment [3] is SW480 human primary colon cancer cells. Description: MTT assay, SW480 cells. The experiment is classed as cell-based. The settings on record: for IC50: Homo sapiens, SW480, MTT, 72 h, mean ± SD. For orientation: Formazan colour is commonly taken as a measure of viable cells.
In experiment [4] the test system is SW620 human metastatic colon cancer cells. Description: MTT assay, SW620 cells. The experiment is classed as cell-based. To be noted: for IC50: Homo sapiens, SW-620, MTT, 72 h, mean ± SD.
The test system of experiment [5] is MiaPaCa human pancreas cancer cells. Description: MTT assay, MiaPaCa cells. To be noted: for IC50: Homo sapiens, MIA PaCa-2, MTT, 72 h, mean ± SD. The format is cell-based.
Experiment [6] relates to A549 human lung cancer cells. Description: MTT assay, A549 cells. The format is cell-based. To be noted: for IC50: Homo sapiens, A549, MTT, 72 h, mean ± SD.
For experiment [7], the system named is MDA-MB-231 human breast cancer cells. Description: MTT assay, MDA-MB-231 cells. The format is cell-based. The settings on record: for IC50: Homo sapiens, MDA-MB-231, MTT, 72 h, mean ± SD.
Experiment [8] deals with V79 Chinese hamster lung fibroblasts. Description: MTT assay, V79 cells. The experiment is classed as cell-based. To be noted: Cricetulus griseus, Fibroblast, 72 h, read-out: IC50 V79 (normal cells).
The test system of experiment [9] is whole non-permeabilized A549 cells. To be noted: for effect on oxygen flux (cellular respiration rate): A549 cells, 0.1, 0.3 and 1 µM, normalized to baseline; for oxygen flux after FCCP addition: A549 cells, FCCP added after the compound.
In experiment [10] the test system is MDA-MB-231 cells. Description: MitoTracker Green FM flow cytometry (mitochondrial mass), MDA-MB-231. The settings on record: MDA-MB-231, 48 h at IC50 concentration. On the technique in general: Flow cytometry measures light scatter and fluorescence of single cells or particles in a stream.
The subject of experiment [11] is MDA-MB-231 cells. Description: MitoTracker Red CMXRos flow cytometry (mitochondrial membrane potential), MDA-MB-231. To be noted: MDA-MB-231, 48 h at IC50 concentration.

Like-named read-outs stand apart in the source and are kept apart here.

Take `COc1cccc2c1C(=O)c1c(O)c3c(c(O)c1C2=O)C[C@@](O)(C(=O)CO)C[C@@H]3O[C@H]1C[C@H](N)[C@H](O)[C@H](C)O1` [DOX, Doxorubicin, reference compound]: the 50% inhibitory concentration (IC50) in experiment [1] is 600 ± 20 nM; in experiment [2] (MTT, mean ± SD), 300 ± 10 nM; in experiment [3] it was 300 ± 80 nM; in [4], 300 ± 80 nM; in experiment [5] it was 1100 ± 100 nM; in [6] it was 600 ± 200 nM. For the same compound, the 50% inhibitory concentration (IC50) in [7] was found to be 800 ± 30 nM; in experiment [8] (MTT, mean ± SD) it was 2000 ± 30 nM. In experiment [1] (SI = IC50 HaCaT/IC50 PC3), the “Selectivity index (SI) HaCaT / PC3” value is 0.5. In addition, in [1] (SI = IC50 V79/IC50 PC3), the “Selectivity index (SI) V79 / PC3” value came to 3.3. Besides, the “Selectivity index (SI) V79 / SW480” value in experiment [3] (SI = IC50 V79/IC50 SW480) is on record as 6.7. For the same compound, the “Selectivity index (SI) HaCaT / SW480” value in experiment [3] (SI = IC50 for normal cell line (HaCaT)/IC50 for cancer cell line (SW480)) is reported as 1.0. The “Selectivity index (SI) HaCaT / SW620” value in experiment [4] (SI = IC50 HaCaT/IC50 SW620) is recorded as 1.0. Besides, the “Selectivity index (SI) V79 / SW620” value in experiment [4] (SI = IC50 V79/IC50 SW620) turned out to be 6.7. Besides, the “Selectivity index (SI) HaCaT / MiaPaCa” value in experiment [5] (SI = IC50 HaCaT/IC50 MiaPaCa) is recorded as 0.3. Also, in experiment [5] (SI = IC50 V79/IC50 MiaPaCa), the “Selectivity index (SI) V79 / MiaPaCa” value amounted to 1.8. Further, the “Selectivity index (SI) HaCaT / A549” value in experiment [6] (SI = IC50 HaCaT/IC50 A549) is 0.5. Besides, in experiment [6] (SI = IC50 V79/IC50 A549), the “Selectivity index (SI) V79 / A549” value is on record as 3.3. In experiment [7] (SI = IC50 HaCaT/IC50 MDA-MB-231), the “Selectivity index (SI) HaCaT / MDA-MB-231” value amounted to 0.4. In addition, the “Selectivity index (SI) V79 / MDA-MB-231” value in experiment [7] (SI = IC50 V79/IC50 MDA-MB-231) is 2.5.

As for `CC[C@@]1([C@@H]2O[C@@H]([C@H]3O[C@@](O)(CO)[C@H](C)C[C@@H]3C)C[C@@H]2C)CC[C@H]([C@]2(C)CC[C@]3(C[C@H](O)[C@@H](C)[C@@H]([C@@H](C)[C@@H](OC)[C@H](C)C(=O)O)O3)O2)O1` [MON, Monensin A, reference compound], the IC50 in experiment [1] was 3400 ± 1000 nM; in experiment [3], 2500 ± 200 nM; in experiment [4] it was 2700 ± 100 nM; in experiment [5], 1100 ± 200 nM; in [6], 2600 ± 1000 nM; in [7], 4900 ± 300 nM. For the same compound, the concentration for half-maximal inhibition (IC50) in experiment [8] (MTT, mean ± SD) was 3600 ± 500 nM.

`CCCC[P+](CCCC)(CCCC)Cc1cn([C@H]2C=C[C@]3(O[C@H]([C@@H](CC)C(=O)[C@@H](C)[C@@H](O)[C@H](C)[C@@H]4O[C@@H]([C@@H](CC)C(=O)O)CC[C@@H]4C)[C@@H](C)C[C@H]3C)O[C@@]23CC[C@@](C)([C@H]2CC[C@](O)(CC)[C@H](C)O2)O3)nn1` [1d]: the IC50 in [2] turned out to be 2400 ± 100 nM. In experiment [9], the “effect on oxygen flux (cellular respiration rate)” value (shortened to “effect on oxygen flux”) is reported as “increased cellular respiration” and the “oxygen flux after FCCP addition” value was “uncoupled mitochondria far more”. The IC50 in experiment [8] is 4800 ± 200 nM.

Consider `CC[C@@H](C(=O)[C@@H](C)[C@@H](O)[C@H](C)[C@@H]1O[C@@H]([C@@H](CC)C(=O)O)CC[C@@H]1C)[C@H]1O[C@]2(C=C[C@H](n3cc(COC(=O)CCC[P+](c4ccccc4)(c4ccccc4)c4ccccc4)nn3)[C@]3(CC[C@@](C)([C@H]4CC[C@](O)(CC)[C@H](C)O4)O3)O2)[C@H](C)C[C@@H]1C` [1b], for which the results for the half-maximal inhibitory concentration (IC50) in experiment [2] and in [8] were 2800 ± 200 nM and 4500 ± 400 nM, respectively.

As to `CC[C@@H](C(=O)[C@@H](C)[C@@H](O)[C@H](C)[C@@H]1O[C@@H]([C@@H](CC)C(=O)O)CC[C@@H]1C)[C@H]1O[C@]2(C=C[C@H](NC(=O)CCC[P+](c3ccccc3)(c3ccccc3)c3ccccc3)[C@]3(CC[C@@](C)([C@H]4CC[C@](O)(CC)[C@H](C)O4)O3)O2)[C@H](C)C[C@@H]1C` [1e], the IC50 in experiment [2] came out at 8300 ± 700 nM; in experiment [8] it was 8800 ± 400 nM. For the same compound, in [9], the “effect on oxygen flux” value was “did not cause any changes”.

On to `CC[C@@H](C(=O)[C@@H](C)[C@@H](O)[C@H](C)[C@@H]1O[C@@H]([C@@H](CC)C(=O)O)CC[C@@H]1C)[C@H]1O[C@]2(C=C[C@H](n3cc(C[P+](c4ccccc4)(c4ccccc4)c4ccccc4)nn3)[C@]3(CC[C@@](C)([C@H]4CC[C@](O)(CC)[C@H](C)O4)O3)O2)[C@H](C)C[C@@H]1C` [1a], for which the IC50 in experiment [2] is 3800 ± 300 nM; in experiment [8], 4800 ± 600 nM. Moreover, the “cells positive for MTGreen fluorescence” value in the experiment on MDA-MB-231 cells [10] stood at 63.03%. In experiment [9], the “effect on oxygen flux” value is recorded as “Significant decrease in oxygen flux”.

As for `CCC1(C2OC(C3OC(O)(COC(=O)CCC(=O)OCCC[P+](c4ccccc4)(c4ccccc4)c4ccccc4)C(C)CC3C)CC2C)CCC(C2(C)CCC3(CC(O)C(C)C(C(C)C(OC)C(C)C(=O)OCCC[P+](c4ccccc4)(c4ccccc4)c4ccccc4)O3)O2)O1` (stereo not drawn) [2f], the values for the IC50 in [2] and in [8] were 300 ± 100 nM and 3200 ± 1100 nM, respectively. Moreover, in the experiment on MDA-MB-231 cells [11], the “MTRed CMXRos positive stained cells” value is 15.5%. The “effect on oxygen flux” value in [9] is recorded as “strongest effect”.

With `CC[C@@H](C(=O)[C@@H](C)[C@@H](O)[C@H](C)[C@@H]1O[C@@H]([C@@H](CC)C(=O)O)CC[C@@H]1C)[C@H]1O[C@]2(C=C[C@H](n3cc(CNC(=O)CCC[P+](c4ccccc4)(c4ccccc4)c4ccccc4)nn3)[C@]3(CC[C@@](C)([C@H]4CC[C@](O)(CC)[C@H](C)O4)O3)O2)[C@H](C)C[C@@H]1C` [1c], the concentration for half-maximal inhibition (IC50) in experiment [2] came out at 7100 ± 1200 nM; in experiment [8], 17000 ± 2800 nM.

As to `CC[C@@H](C(=O)[C@@H](C)[C@@H](O)[C@H](C)[C@@H]1O[C@@H]([C@@H](CC)C(=O)OCCCCCC[P+](c2ccccc2)(c2ccccc2)c2ccccc2)CC[C@@H]1C)[C@H]1O[C@]2(C=C[C@@H](OC(=O)CCC(=O)OCCCCCC[P+](c3ccccc3)(c3ccccc3)c3ccccc3)[C@]3(CC[C@@](C)([C@H]4CC[C@](O)(CC)[C@H](C)O4)O3)O2)[C@H](C)C[C@@H]1C` [1f], in experiment [9], the “effect on oxygen flux” value was “increased cellular respiration” and the “oxygen flux after FCCP addition” value is listed as “reduction in the respiration rate”.

Broadly, the IC50 is the point on the concentration scale where inhibition reaches its midpoint.
